# Data taken from the supplement of paper PMC8728848.
# This is one part of the list.
# B1: AAL (Aleuria aurantia), P18891 (protein)
# chain: PTEFLYTSKIAAISWAATGGRQQRVYFQDLNGKIREAQRGGDNPWTGGSSQNVIGEAKLFSPLAAVTWKSAQGIQIRVYCVNKDNILSEFVYDGSKWITGQLGSVGVKVGSNSKLAALQWGGSESAPPNIRVYYQKSNGSGSSIHEYVWSGKWTAGASFGSTVPGTGIGATAIGPGRLRIYYQATDNKIREHCWDSNSWYVGGFSASASAGVSIAAISWGSTPNIRVYWQKGREELYEAAYGGSWNTPGQIKDASRPTPSLPDTFIAANSSGNIDISVFFQASGVSLQQWQWISGKGWSIGAVVPTGTPAGW
# How the values were obtained:
# Assay in all cases: glycan array binding signal (z-score within array); higher = stronger binding
# Conditions in all cases: glycan notation: IUPAC condensed, linker removed
# [1] = molecular target: Fuc(a1-2)Gal
# In short: (§1)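 Glycan array data came from 3228 arrays in the Consortium for Functional Glycomics database, and only arrays with an available protein sequence were kept. Glycan names were put into IUPAC-condensed notation, and columns mapping to the same glycan were averaged. The binding signal is a within-array Z-score, averaged across arrays of one protein sequence run at different concentrations or buffers and across linkers. A negative Z-score can be read as non-binding.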
# [2] = molecular target: Fuc(a1-2)Gal(b1-3)GalNAc
# In short: as §1
# [3] = molecular target: Fuc(a1-2)Gal(b1-3)GalNAc(a1-3)[Fuc(a1-2)]Gal(b1-4)Glc
# In short: as §1
# [4] = molecular target: Fuc(a1-2)Gal(b1-3)GalNAc(a1-3)[Fuc(a1-2)]Gal(b1-4)GlcNAc
# In short: as §1
# [5] = molecular target: Fuc(a1-2)Gal(b1-3)GalNAc(b1-3)Gal
# In short: as §1
# [6] = molecular target: Fuc(a1-2)Gal(b1-3)GalNAc(b1-3)Gal(a1-4)Gal(b1-4)Glc
# In short: as §1
# [7] = molecular target: Fuc(a1-2)Gal(b1-3)GalNAc(b1-3)Gal(b1-4)Glc
# In short: as §1
# [8] = molecular target: Fuc(a1-2)Gal(b1-3)GalNAc(b1-4)[Neu5Ac(a2-3)]Gal(b1-4)Glc
# In short: as §1
# [9] = molecular target: Fuc(a1-2)Gal(b1-3)GlcNAc
# In short: as §1
# [10] = molecular target: Fuc(a1-2)Gal(b1-3)GlcNAc(b1-2)Man(a1-3)[Fuc(a1-2)Gal(b1-3)GlcNAc(b1-2)Man(a1-6)]Man(b1-4)GlcNAc(b1-4)GlcNAc
# In short: as §1
# [11] = molecular target: Fuc(a1-2)Gal(b1-3)GlcNAc(b1-2)Man(a1-3)[Fuc(a1-2)Gal(b1-3)GlcNAc(b1-2)Man(a1-6)]Man(b1-4)GlcNAc(b1-4)[Fuc(a1-6)]GlcNAc
# In short: as §1
# [12] = molecular target: Fuc(a1-2)Gal(b1-3)GlcNAc(b1-3)Gal(b1-4)Glc
# In short: as §1
# [13] = molecular target: Fuc(a1-2)Gal(b1-3)GlcNAc(b1-3)GalNAc
# In short: as §1
# [14] = molecular target: Fuc(a1-2)Gal(b1-3)GlcNAc(b1-3)[Fuc(a1-3)[Gal(b1-4)]GlcNAc(b1-6)]Gal(b1-4)Glc
# In short: as §1
# [15] = molecular target: Fuc(a1-2)Gal(b1-3)GlcNAc(b1-3)[Gal(b1-4)GlcNAc(b1-6)]Gal(b1-4)Glc
# In short: as §1
# [16] = molecular target: Fuc(a1-2)Gal(b1-3)[Fuc(a1-4)]GlcNAc
# In short: as §1
# [17] = molecular target: Fuc(a1-2)Gal(b1-3)[Fuc(a1-4)]GlcNAc(b1-2)Man(a1-3)[Fuc(a1-2)Gal(b1-3)[Fuc(a1-4)]GlcNAc(b1-2)Man(a1-6)]Man(b1-4)GlcNAc(b1-4)GlcNAc
# In short: as §1
# [18] = molecular target: Fuc(a1-2)Gal(b1-3)[Fuc(a1-4)]GlcNAc(b1-3)[Fuc(a1-3)[Gal(b1-4)]GlcNAc(b1-6)]Gal(b1-4)Glc
# In short: as §1
# [19] = molecular target: Fuc(a1-2)Gal(b1-3)[Fuc(a1-4)]GlcNAc(b1-3)[Gal(b1-4)GlcNAc(b1-6)]Gal(b1-4)Glc
# In short: as §1
# [20] = molecular target: Fuc(a1-2)Gal(b1-4)Glc
# In short: as §1
# [21] = molecular target: Fuc(a1-2)Gal(b1-4)Glc6S
# In short: as §1
# [22] = molecular target: Fuc(a1-2)Gal(b1-4)GlcNAc
# In short: as §1
# [23] = molecular target: Fuc(a1-2)Gal(b1-4)GlcNAc(b1-2)Man(a1-3)[Fuc(a1-2)Gal(b1-4)GlcNAc(b1-2)Man(a1-6)]Man(b1-4)GlcNAc(b1-4)GlcNAc
# In short: as §1
# [24] = molecular target: Fuc(a1-2)Gal(b1-4)GlcNAc(b1-2)Man(a1-3)[Fuc(a1-2)Gal(b1-4)GlcNAc(b1-2)Man(a1-6)]Man(b1-4)GlcNAc(b1-4)[Fuc(a1-6)]GlcNAc
# In short: as §1
# [25] = molecular target: Fuc(a1-2)Gal(b1-4)GlcNAc(b1-2)[Fuc(a1-2)Gal(b1-4)GlcNAc(b1-4)]Man(a1-3)[Fuc(a1-2)Gal(b1-4)GlcNAc(b1-2)Man(a1-6)]Man(b1-4)GlcNAc(b1-4)GlcNAc
# In short: as §1
# [26] = molecular target: Fuc(a1-2)Gal(b1-4)GlcNAc(b1-3)Gal(b1-4)GlcNAc
# In short: as §1
# [27] = molecular target: Fuc(a1-2)Gal(b1-4)GlcNAc(b1-3)Gal(b1-4)GlcNAc(b1-3)Gal(b1-4)GlcNAc
# In short: as §1
# [28] = molecular target: Fuc(a1-2)Gal(b1-4)GlcNAc(b1-3)GalNAc
# In short: as §1
# [29] = molecular target: Fuc(a1-2)Gal(b1-4)GlcNAc6S
# In short: as §1
# [30] = molecular target: Fuc(a1-2)Gal(b1-4)[Fuc(a1-3)]GalNAc(b1-3)Gal(b1-4)[Fuc(a1-3)]GlcNAc
# In short: as §1
binder,measurement,setting,value
B1,glycan array binding signal (z-score),[1],1.88
same,glycan array binding signal (z-score),[2],0.997
same,glycan array binding signal (z-score),[3],0.135
same,glycan array binding signal (z-score),[4],0.095
same,glycan array binding signal (z-score),[5],-0.503
same,glycan array binding signal (z-score),[6],0.298
same,glycan array binding signal (z-score),[7],2.15
same,glycan array binding signal (z-score),[8],-0.417
same,glycan array binding signal (z-score),[9],0.956
same,glycan array binding signal (z-score),[10],0.432
same,glycan array binding signal (z-score),[11],-0.012
same,glycan array binding signal (z-score),[12],0.776
same,glycan array binding signal (z-score),[13],-0.303
same,glycan array binding signal (z-score),[14],1.17
same,glycan array binding signal (z-score),[15],0.752
same,glycan array binding signal (z-score),[16],1.55
same,glycan array binding signal (z-score),[17],-0.312
same,glycan array binding signal (z-score),[18],0.986
same,glycan array binding signal (z-score),[19],0.546
same,glycan array binding signal (z-score),[20],2.05
same,glycan array binding signal (z-score),[21],3.52
same,glycan array binding signal (z-score),[22],2.11
same,glycan array binding signal (z-score),[23],1.95
same,glycan array binding signal (z-score),[24],-0.429
same,glycan array binding signal (z-score),[25],1.06
same,glycan array binding signal (z-score),[26],2.22
same,glycan array binding signal (z-score),[27],3.03
same,glycan array binding signal (z-score),[28],0.139
same,glycan array binding signal (z-score),[29],2.6
same,glycan array binding signal (z-score),[30],1.67
